US10273244B2, “Substituted hexahydropyrrolo[3,4-b]pyrroles and hexahydrocyclopenta[c]pyrroles as dopamine receptor modulators” (INDIVIOR UK LIMITED, priority 2015, dated 2019)

Target: human dopamine type 3 receptor (CHO-hD3 membranes) (Homo sapiens (Human), UniProt P35462)
[1] = displacement of 0.3 nM [3H]-Spiperone

Chain of UniProt P35462 (P35462 whole entry): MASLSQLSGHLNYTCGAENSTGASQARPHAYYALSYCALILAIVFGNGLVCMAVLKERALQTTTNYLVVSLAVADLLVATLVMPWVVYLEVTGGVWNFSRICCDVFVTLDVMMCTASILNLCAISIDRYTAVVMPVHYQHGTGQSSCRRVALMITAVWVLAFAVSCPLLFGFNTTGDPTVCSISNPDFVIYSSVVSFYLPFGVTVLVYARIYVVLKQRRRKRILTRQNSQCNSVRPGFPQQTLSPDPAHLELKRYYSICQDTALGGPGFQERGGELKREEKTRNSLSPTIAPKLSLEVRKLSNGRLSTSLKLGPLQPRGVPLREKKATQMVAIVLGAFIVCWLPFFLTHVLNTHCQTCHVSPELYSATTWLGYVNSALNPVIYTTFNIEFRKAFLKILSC

| Structure (SMILES) | D3 pKi [1] | D3 pKi |
| --- | --- | --- |
| Cn1c(SCCCN2C[C@H]3CCN(c4ccc(C(F)(F)F)cc4)[C@H]3C2)nnc1-c1ccc(=O)n(C)c1 [Example 194, 5-[5-({3-[(3aR,6aR or 3aS,6aS)-1-[4-(trifluoromethyl)phenyl]-octahydropyrrolo[3,4-b]pyrrol-5-yl]propyl}sulfanyl)-4-methyl-4H-1,2,4-triazol-3-yl]-1-methyl-1,2-dihydropyridin-2-one] | 8.28 |  |
| Cl.Cl.Cl.Cn1c(SCCCN2C[C@@H]3CCN(c4ccccc4C(F)(F)F)[C@@H]3C2)nnc1-c1ccncc1 [Example 158, 4-[5-({3-[(3aS,6aS or 3aR,6aR)-1-[2-(trifluoromethyl)phenyl]-octahydropyrrolo[3,4-b]pyrrol-5-yl]propyl}sulfanyl)-4-methyl-4H-1,2,4-triazol-3-yl]pyridine trihydrochloride] | 8.75 |  |
| Cc1ncoc1-c1nnc(CCCCN2CC3CCN(c4ccc(F)cc4)C3C2)n1C.Cl.Cl (stereo not shown) [Example 217, 3-{4-[1-(4-fluorophenyl)-octahydropyrrolo[2,3-c]pyrrol-5-yl]butyl}-4-methyl-5-(4-methyl-1,3-oxazol-5-yl)-4H-1,2,4-triazole dihydrochloride] | 7.09 |  |
| Cn1c(SCCCN2CC3CCN(c4c(F)cc(F)cc4F)C3C2)nnc1-c1ccc(C(N)=O)nc1 (stereo not shown) [Example 204, 5-[4-methyl-5-({3-[1-(2,4,6-trifluorophenyl)-octahydropyrrolo[2,3-c]pyrrol-5-yl]propyl}sulfanyl)-4H-1,2,4-triazol-3-yl]pyridine-2-carboxamide] | 8.98 |  |
| Cc1ncoc1-c1nnc(SCCCN2CC3CCN(c4c(F)cccc4F)C3C2)n1C (stereo not shown) [Example 27, 3-({3-[1-(2,6-difluorophenyl)-octahydropyrrolo[3,4-b]pyrrol-5-yl]propyl}sulfanyl)-4-methyl-5-(4-methyl-1,3-oxazol-5-yl)-4H-1,2,4-triazole] | 8.58 |  |
| Cn1c(SCCCN2CC3CCN(c4ccccc4C(F)(F)F)C3C2)nnc1-c1ccccn1 (stereo not shown) [Example 161, 2-{4-methyl-5-[(3-{1-[2-(trifluoromethyl)phenyl]-octahydropyrrolo[3,4-b]pyrrol-5-yl}propyl)sulfanyl]-4H-1,2,4-triazol-3-yl}pyridine] | 8.29 |  |
| COc1cc(N2CCC3CN(CCCSc4nnc(-c5cnccn5)n4C)CC32)ccc1F (stereo not shown) [Example 125, 2-[5-({3-[1-(4-fluoro-3-methoxyphenyl)-octahydropyrrolo[3,4-b]pyrrol-5-yl]propyl}sulfanyl)-4-methyl-4H-1,2,4-triazol-3-yl]pyrazine] | 8.48 |  |
| Cn1c(SCCCN2CC3CCN(c4ccc(C(F)(F)F)cc4)C3C2)nnc1C1COCCO1 (stereo not shown) [Example 71, 3-(1,4-dioxan-2-yl)-4-methyl-5-[(3-{1-[4-(trifluoromethyl)phenyl]-octahydropyrrolo[3,4-b]pyrrol-5-yl}propyl)sulfanyl]-4H-1,2,4-triazol] | 7.47 |  |
| Cn1c(SCCCN2CC3CCN(c4ccc(C(F)(F)F)cc4)C3C2)nnc1-c1ccc(=O)[nH]c1 (stereo not shown) [Example 175, 5-{4-methyl-5-[(3-{1-[4-(trifluoromethyl)phenyl]-octahydropyrrolo[3,4-b]pyrrol-5-yl}propyl)sulfanyl]-4H-1,2,4-triazol-3-yl}-1,2-dihydropyridin-2-one] | 8.35 |  |
| Cn1c(SCCCN2CC3CCN(c4ccccc4C(F)(F)F)C3C2)nnc1-c1cc[nH]c(=O)c1 (stereo not shown) [Example 174, 4-{4-methyl-5-[(3-{1-[2-(trifluoromethyl)phenyl]-octahydropyrrolo[3,4-b]pyrrol-5-yl}propyl)sulfanyl]-4H-1,2,4-triazol-3-yl}-1,2-dihydropyridin-2-one] | 7.87 |  |
| Cn1c(SCCCN2C[C@@H]3CCN(c4c(F)cccc4F)[C@@H]3C2)nnc1-c1ccc(C(N)=O)nc1 [Example 202, 5-[5-({3-[(3aS,6aS or 3aR,6aR)-1-(2,6-difluorophenyl)-octahydropyrrolo[3,4-b]pyrrol-5-yl]propyl}sulfanyl)-4-methyl-4H-1,2,4-triazol-3-yl]pyridine-2-carboxamide] |  | 8.42 |
| Cn1c(SCCCN2C[C@H]3CCN(c4c(F)cccc4F)[C@H]3C2)nnc1-c1ccc(C(N)=O)nc1 [Example 203, 5-[5-({3-[(3aR,6aR or 3aS,6aS)-1-(2,6-difluorophenyl)-octahydropyrrolo[3,4-b]pyrrol-5 yl]propyl}sulfanyl)-4-methyl-4H-1,2,4-triazol-3-yl]pyridine-2-carboxamide] |  | 8.88 |
| Cn1c(SCCCN2CC3CCN(c4cccc(C(F)(F)F)c4)C3C2)nnc1-c1cnccn1 (stereo not shown) [Example 113, 2-{4-methyl-5-[(3-{1-[3-(trifluoromethyl)phenyl]-octahydropyrrolo[3,4-b]pyrrol-5-yl}propyl)sulfanyl]-4H-1,2,4-triazol-3-yl}pyrazine] | 9.65 |  |
| Cn1c(SCCCN2CC3CCN(c4ccccc4C(F)(F)F)C3C2)nnc1-c1ccc(=O)[nH]c1 (stereo not shown) [Example 179, 5-{4-methyl-5-[(3-{1-[2-(trifluoromethyl)phenyl]-octahydropyrrolo[3,4-b]pyrrol-5-yl}propyl)sulfanyl]-4H-1,2,4-triazol-3-yl}-1,2-dihydropyridin-2-one] | 8.10 |  |
| Cn1c(CCCCN2CC3CCN(c4ccc(C(F)(F)F)cc4)C3C2)nnc1C1CCOCC1 (stereo not shown) [Example 213, 4-methyl-3-(oxan-4-yl)-5-(4-{1-[4-(trifluoromethyl)phenyl]-octahydropyrrolo[2,3-c]pyrrol-5-yl}butyl)-4H-1,2,4-triazole] | 7.64 |  |
| Cn1c(SCCCN2CC3CCN(c4ccc(F)cc4)C3C2)nnc1-c1ccc(=O)[nH]c1 (stereo not shown) [Example 176, 5-[5-({3-[1-(4-fluorophenyl)-octahydropyrrolo[2,3-c]pyrrol-5-yl]propyl}sulfanyl)-4-methyl-4H-1,2,4-triazol-3-yl]-1,2-dihydropyridin-2-one] | 8.33 |  |
| Cn1c(SCCCN2CC3CCN(c4cccc(C(F)(F)F)c4)C3C2)nnc1-c1ccc(=O)[nH]c1 (stereo not shown) [Example 178, 5-{4-methyl-5-[(3-{1-[3-(trifluoromethyl)phenyl]-octahydropyrrolo[3,4-b]pyrrol-5-yl}propyl)sulfanyl]-4H-1,2,4-triazol-3-yl}-1,2-dihydropyridin-2-one] | 9.07 |  |
| Cn1c(SCCCN2CC3CCN(c4ccc(C(F)(F)F)cc4)C3C2)nnc1-c1ccc(C(N)=O)nc1 (stereo not shown) [Example 195, 5-{4-methyl-5-[(3-{1-[4-(trifluoromethyl)phenyl]-octahydropyrrolo[3,4-b]pyrrol-5-yl}propyl)sulfanyl]-4H-1,2,4-triazol-3-yl}pyridine-2-carboxamide] | 9.11 |  |
| Cn1c(SCCCN2C[C@@H]3CCN(c4ccc(F)cc4)[C@@H]3C2)nnc1-c1ccc(C(N)=O)nc1 [Example 199, 5-[5-({3-[(3aS,6aS or 3aR,6aR)-1-(4-fluorophenyl)-octahydropyrrolo[3,4-b]pyrrol-5-yl]propyl}sulfanyl)-4-methyl-4H-1,2,4-triazol-3-yl]pyridine-2-carboxamide] |  | 9.29 |
| Cn1c(SCCCN2C[C@@H]3CCN(c4ccc(C(F)(F)F)cc4)[C@@H]3C2)nnc1-c1ccc(C(N)=O)nc1 [Example 196, 5-[5-({3-[(3aS,6aS or 3aR,6aR)-1-[4-(trifluoromethyl)phenyl]-octahydropyrrolo[3,4-b]pyrrol-5-yl]propyl}sulfanyl)-4-methyl-4H-1,2,4-triazol-3-yl]pyridine-2-carboxamide] |  | 9.23 |
| Cc1ncoc1-c1nnc(SCCCN2CC3CCN(c4ccc(Cl)cc4Cl)C3C2)n1C (stereo not shown) [Example 29, 3-({3-[1-(2,4-dichlorophenyl)-octahydropyrrolo[3,4-b]pyrrol-5-yl]propyl}sulfanyl)-4-methyl-5-(4-methyl-1,3-oxazol-5-yl)-4H-1,2,4-triazole] | 8.28 |  |
| Cl.Cl.Cl.Cn1c(SCCCN2C[C@H]3CCN(c4ccc(C(F)(F)F)cc4)[C@H]3C2)nnc1-c1cccnc1 [Example 145, 3-[5-({3-[(3aR,6aR or 3aS,6aS)-1-[4-(trifluoromethyl)phenyl]-octahydropyrrolo[3,4-b]pyrrol-5-yl]propyl}sulfanyl)-4-methyl-4H-1,2,4-triazol-3-yl]pyridine trihydrochloride] | 8.67 |  |
| Cn1c(SCCCN2CC3CCN(c4cccc(OC(F)(F)F)c4)C3C2)nnc1-c1cnccn1 (stereo not shown) [Example 114, 2-{4-methyl-5-[(3-{1-[3-(trifluoromethoxy)phenyl]-octahydropyrrolo[3,4-b]pyrrol-5-yl}propyl)sulfanyl]-4H-1,2,4-triazol-3-yl}pyrazine] | 9.45 |  |
| Cc1ncoc1-c1nnc(SCCCN2CC3CCN(c4cc(Cl)cc(Cl)c4)C3C2)n1C (stereo not shown) [Example 28, 3-({3-[1-(3,5-dichlorophenyl)-octahydropyrrolo[3,4-b]pyrrol-5-yl]propyl}sulfanyl)-4-methyl-5-(4-methyl-1,3-oxazol-5-yl)-4H-1,2,4-triazole] | 9.38 |  |
| Cn1c(SCCCN2CC3CCN(c4ccc(C(F)(F)F)cc4)C3C2)nnc1C1CCCCC1 (stereo not shown) [Example 56, 3-cyclohexyl-4-methyl-5-[(3-{1-[4-(trifluoromethyl)phenyl]-octahydropyrrolo[3,4-b]pyrrol-5-yl}propyl)sulfanyl]-4H-1,2,4-triazol] | 9.48 |  |
| CC(C)Oc1ccccc1N1CCC2CN(CCCSc3nnc(-c4cnccn4)n3C)CC21 (stereo not shown) [Example 115, 2-{4-methyl-5-[(3-{1-[2-(propan-2-yloxy)phenyl]-octahydropyrrolo[3,4-b]pyrrol-5-yl}propyl)sulfanyl]-4H-1,2,4-triazol-3-yl}pyrazine] | 7.96 |  |
| Cn1c(SCCCN2CC3CCN(c4ccc(F)cc4C(F)(F)F)C3C2)nnc1-c1cnccn1 (stereo not shown) [Example 130, 2-{5-[(3-{1-[4-fluoro-2-(trifluoromethyl)phenyl]-octahydropyrrolo[3,4-b]pyrrol-5-yl}propyl)sulfanyl]-4-methyl-4H-1,2,4-triazol-3-yl}pyrazine] | 7.62 |  |
| Cn1c(SCCCN2CC3CCN(c4cccnc4)C3C2)nnc1C1CCOCC1 (stereo not shown) [Example 46, 3-[5-(3-{[4-methyl-5-(oxan-4-yl)-4H-1,2,4-triazol-3-yl]sulfanyl}propyl)-octahydropyrrolo[2,3-c]pyrrol-1-yl]pyridine] | 7.10 |  |

Where two headings read alike, the source gives them in different places.
